# Test results taken from PubChem BioAssay (NCATS).
# Inconclusive means that the source gave no clear call. Such entries were picked first, then a sample of the others. Potencies of inconclusive entries are left out as doubtful fits. Calls of active or inactive are those of the source. Calls come from the whole dose curve; as a rule, active = well fitted inhibition curve with a large enough effect; inconclusive = small, poorly fitted or top-dose-only effect; inactive = no such curve, though single readings can be large or run the other way.
# Test: qHTS Screen of the MIPE 4.0 Collection Against Ewings Sarcoma (EW8) (AID 1259255); note: nearly all actives have a fitted effect of over 35% in size;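 for viability: 100% = DMSO-treated cells and 0% = medium-only wells without cells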
# Conditions: EW8 Ewing sarcoma viability, CellTiter-Glo, 48 h; series mostly up to 45.8 µM; viability: at the top concentration
# Method in brief: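 Viability screen: 48 h incubation at 37C, 95% humidity, 5% CO2 with serially titrated compound, followed by CellTiter-Glo readout.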
# Potency is the fitted concentration of half-maximal effect; tags give direction and shape of the fitted curve.
Compound,Potency,viability
O=C1NC(=O)C(c2cnc3ccccn23)=C1c1cn2c3c(cccc13)CN(C(=O)N1CCOCC1)CC2,"inconclusive [inhibitor, single point]",–
CC(C)c1cnn2c(NCc3ccccc3)cc(N[C@@H](CO)[C@H](O)CO)nc12,active: 0.372 µM,–
CNc1nc(-c2ccc3c(N)n[nH]c3c2)cc(N2C[C@@H](C(=O)NC3CCCCC3)CC[C@@H]2C)n1,"inconclusive [inhibitor, partial curve]",–
COc1cc2ncnc(Nc3cccc(Cl)c3)c2cc1OC,"inconclusive [inhibitor, single point]",–
CCC[C@H](Nc1nc(-c2ccc(NC(=O)NCC)c(OC)c2)ncc1C)c1cccnc1,"inconclusive [inhibitor, full curve]",–
CC(=CC(=O)Nc1ccccc1C(=O)O)c1ccc2ccccc2c1,active: 10.5 µM,–
CN1CCc2c(n(Cc3ccc(C(=O)NO)cc3)c3ccccc23)C1,active: 16.6 µM,–
Cc1cnc(CNC(=O)c2c(=O)c3ccc(N4CCCN(C)CC4)nc3n3c2sc2ccccc23)cn1,"inconclusive [inhibitor, partial curve]",–
COc1ccc(Nc2cc(-c3cnc(N)nc3)nc(N3CCOCC3)n2)cn1,active: 11.8 µM,–
CC(C)(O)Cn1c(NC(=O)c2ccc(-c3cn[nH]c3)s2)nc2cc(CN3CCOCC3)ccc21,active: 2.96 µM,–
O=C(CCCN1CCN(c2ccc(F)cc2)CC1)NC1c2ccccc2CSc2ccccc21 (configuration not stated),"inconclusive [inhibitor, partial curve]",–
CCOC(=O)C1=C(C)NC2=C(C(=O)CC(C)(C)C2)C1c1ccc(-c2ccccc2)cc1 (configuration not stated),active: 29.6 µM,–
CNC(=O)c1ccc(N2C(=S)N(c3cnc(C#N)c(C(F)(F)F)c3)C(=O)C23CCC3)cc1F,active: 8.33 µM,–
C[C@]12C=CC(=O)N[C@@H]1CC[C@H]1[C@H]3CC[C@@H](C(=O)Nc4cc(C(F)(F)F)ccc4C(F)(F)F)[C@@]3(C)CC[C@@H]12,–,inactive: 101%
NC(=O)c1ncn([C@@H]2O[C@H](CO)[C@@H](O)[C@@H]2O)n1,–,inactive: 119%
CNC(=O)c1ccccc1Nc1nc(Nc2ccc(N3CCOCC3)cc2OC)ncc1Cl,active: 1.48 µM,–
NC(=O)NO,"inconclusive [inhibitor, single point]",–
CC(=O)[C@]1(O)Cc2c(O)c3c(c(O)c2[C@@H](O[C@H]2C[C@H](N)[C@@H](O)[C@H](C)O2)C1)C(=O)c1ccccc1C3=O,active: 0.0187 µM,–
O=C(c1ccc(OCCN2CCCCC2)cc1)c1c(-c2ccc(O)cc2)sc2cc(O)ccc12,"inconclusive [inhibitor, partial curve]",–

Compound,Potency,viability
CCOC(=O)N1CCN([N+]([O-])=NOc2ccc([N+](=O)[O-])cc2C#N)CC1,active: 2.35 µM,–
CCC(C=C[C@@H]1OC(=O)C=C[C@H]1C)=C[C@H](C)CC=CC(C)=C[C@@H](C)C(=O)[C@@H](C)[C@H](O)[C@@H](C)CC(C)=CC(=O)O,active: 0.0156 µM,–
COc1ccnc2[nH]cc(C(=O)C(=O)N3CCN(C(=O)c4ccccc4)C[C@@H]3C)c12,–,inactive: 115%
COc1ccccc1OCC(O)COC(N)=O (configuration not stated),–,inactive: 126%
O=C1NC(=O)C(=Cc2ccc3nccc(-c4ccncc4)c3c2)S1,active: 0.132 µM,–
CO[C@@H]1[C@@H](O)[C@H](O)[C@@H](n2c3c(Cl)cccc3c3c4c(c5c6cccc(Cl)c6[nH]c5c32)C(=O)NC4=O)O[C@@H]1CO,active: 0.105 µM,–
COc1cc(Nc2ncc(F)c(Nc3ccc4c(n3)N(COP(=O)(O)O)C(=O)C(C)(C)O4)n2)cc(OC)c1OC,active: 7.43 µM,–
CCc1cc2c(cc1N1CCC(N3CCOCC3)CC1)C(C)(C)c1[nH]c3cc(C#N)ccc3c1C2=O,–,inactive: 71.6%
O=C(O)Cn1nnc(-c2cc(N3CCC(Oc4cc(F)ccc4Br)CC3)no2)n1,–,inactive: 127%
c1cc(CN2CCCNCCNCCCNCC2)ccc1CN1CCCNCCNCCCNCC1,–,inactive: 113%
CC[C@H](C)n1cc(C)c2c(C(=O)NCc3c(C)cc(C)[nH]c3=O)cc(-c3ccc(N4CCNCC4)nc3)cc21,"inconclusive [inhibitor, single point]",–
CCN[C@H]1C[C@H](C)S(=O)(=O)c2sc(S(N)(=O)=O)cc21,–,inactive: 115%
C[N+](C)([O-])CCNc1ccc(NCC[N+](C)(C)[O-])c2c1C(=O)c1c(O)ccc(O)c1C2=O,active: 20.9 µM,–
CC(C)(O)CC(=O)NCCn1ccc2ncnc(Nc3ccc(Oc4cccc(C(F)(F)F)c4)c(Cl)c3)c21,"inconclusive [inhibitor, single point]",–
CC1=C(CC(=O)O)c2cc(F)ccc2C1=Cc1ccc(S(C)=O)cc1 (configuration not stated),"inconclusive [inhibitor, single point]",–
Oc1cc(-c2nc(-c3ccccc3)[nH]c2-c2ccncc2)ccc1Cl,active: 23.5 µM,–
Cc1cc(Cl)ccc1OCCCC(=O)NO,active: 1.05 µM,–
O=C(Nc1cccc(C(F)(F)F)c1)Nc1cc(S(=O)(=O)NC2CC2)ccc1-c1ccsc1,"inconclusive [inhibitor, single point]",–
